# Reference: the supplement of paper PMC8728848
# This is one part of the list.
# Legend:
# Assay in all cases: glycan array binding signal (z-score within array); higher = stronger binding
# Conditions in all cases: glycan notation: IUPAC condensed, linker removed
# [1] = target: Fuc(a1-2)Gal6S(b1-3)GlcNAc
# Method in brief: (§1)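 Columns mapping to the same glycan were averaged after glycan names were converted to IUPAC-condensed notation. The data come from 3228 arrays in the Consortium for Functional Glycomics database, limited to those with an available protein sequence. Binding is reported as a within-array Z-score averaged across arrays of one protein sequence and across linkers.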
# [2] = target: Fuc(a1-2)Gal6S(b1-3)GlcNAc6S
# Method in brief: as §1
# [3] = target: Fuc(a1-2)Gal6S(b1-4)Glc
# Method in brief: as §1
# [4] = target: Fuc(a1-2)Gal6S(b1-4)Glc6S
# Method in brief: as §1
# [5] = target: Fuc(a1-2)[Gal(a1-3)]Gal
# Method in brief: as §1
# [6] = target: Fuc(a1-2)[Gal(a1-3)]Gal(b1-3)GalNAc
# Method in brief: as §1
# [7] = target: Fuc(a1-2)[Gal(a1-3)]Gal(b1-3)GalNAc(b1-3)Gal(a1-4)Gal(b1-4)Glc
# Method in brief: as §1
# [8] = target: Fuc(a1-2)[Gal(a1-3)]Gal(b1-3)GlcNAc
# Method in brief: as §1
# [9] = target: Fuc(a1-2)[Gal(a1-3)]Gal(b1-3)GlcNAc(b1-2)Man(a1-3)[Fuc(a1-2)[Gal(a1-3)]Gal(b1-3)GlcNAc(b1-2)Man(a1-6)]Man(b1-4)GlcNAc(b1-4)GlcNAc
# Method in brief: as §1
# [10] = target: Fuc(a1-2)[Gal(a1-3)]Gal(b1-3)GlcNAc(b1-2)Man(a1-3)[Fuc(a1-2)[Gal(a1-3)]Gal(b1-3)GlcNAc(b1-2)Man(a1-6)]Man(b1-4)GlcNAc(b1-4)[Fuc(a1-6)]GlcNAc
# Method in brief: as §1
# [11] = target: Fuc(a1-2)[Gal(a1-3)]Gal(b1-3)GlcNAc(b1-3)GalNAc
# Method in brief: as §1
# [12] = target: Fuc(a1-2)[Gal(a1-3)]Gal(b1-3)GlcNAc(b1-6)GalNAc
# Method in brief: as §1
# [13] = target: Fuc(a1-2)[Gal(a1-3)]Gal(b1-4)Glc
# Method in brief: as §1
# [14] = target: Fuc(a1-2)[Gal(a1-3)]Gal(b1-4)GlcNAc
# Method in brief: as §1
# [15] = target: Fuc(a1-2)[Gal(a1-3)]Gal(b1-4)GlcNAc(b1-2)Man
# Method in brief: as §1
# [16] = target: Fuc(a1-2)[Gal(a1-3)]Gal(b1-4)GlcNAc(b1-2)Man(a1-3)[Fuc(a1-2)[Gal(a1-3)]Gal(b1-4)GlcNAc(b1-2)Man(a1-6)]Man(b1-4)GlcNAc(b1-4)GlcNAc
# Method in brief: as §1
# [17] = target: Fuc(a1-2)[Gal(a1-3)]Gal(b1-4)GlcNAc(b1-2)Man(a1-3)[Fuc(a1-2)[Gal(a1-3)]Gal(b1-4)GlcNAc(b1-2)Man(a1-6)]Man(b1-4)GlcNAc(b1-4)[Fuc(a1-6)]GlcNAc
# Method in brief: as §1
# [18] = target: Fuc(a1-2)[Gal(a1-3)]Gal(b1-4)GlcNAc(b1-3)GalNAc
# Method in brief: as §1
# [19] = target: Fuc(a1-2)[Gal(a1-3)]Gal(b1-4)GlcNAc(b1-3)[Fuc(a1-2)[Gal(a1-3)]Gal(b1-4)GlcNAc(b1-6)]GalNAc
# Method in brief: as §1
# [20] = target: Fuc(a1-2)[Gal(a1-3)]Gal(b1-4)GlcNAc(b1-6)GalNAc
# Method in brief: as §1
# [21] = target: Fuc(a1-2)[Gal(a1-3)]Gal(b1-4)[Fuc(a1-3)]Glc
# Method in brief: as §1
# [22] = target: Fuc(a1-2)[Gal(a1-3)]Gal(b1-4)[Fuc(a1-3)]GlcNAc
# Method in brief: as §1
# [23] = target: Fuc(a1-2)[Gal(a1-3)]Gal(b1-4)[Fuc(a1-3)]GlcNAc(b1-3)GalNAc
# Method in brief: as §1
# [24] = target: Fuc(a1-2)[Gal(a1-4)]Gal(b1-4)GlcNAc
# Method in brief: as §1
# [25] = target: Fuc(a1-2)[GalNAc(a1-3)]Gal
# Method in brief: as §1
# [26] = target: Fuc(a1-2)[GalNAc(a1-3)]Gal(b1-3)GalNAc(a1-3)[Fuc(a1-2)]Gal(b1-4)GlcNAc
# Method in brief: as §1
# [27] = target: Fuc(a1-2)[GalNAc(a1-3)]Gal(b1-3)GalNAc(b1-3)Gal(a1-4)Gal(b1-4)Glc
# Method in brief: as §1
# [28] = target: Fuc(a1-2)[GalNAc(a1-3)]Gal(b1-3)GlcNAc
# Method in brief: as §1
# [29] = target: Fuc(a1-2)[GalNAc(a1-3)]Gal(b1-3)GlcNAc(b1-2)Man(a1-3)[Fuc(a1-2)[GalNAc(a1-3)]Gal(b1-3)GlcNAc(b1-2)Man(a1-6)]Man(b1-4)GlcNAc(b1-4)GlcNAc
# Method in brief: as §1
# [30] = target: Fuc(a1-2)[GalNAc(a1-3)]Gal(b1-3)GlcNAc(b1-2)Man(a1-3)[Fuc(a1-2)[GalNAc(a1-3)]Gal(b1-3)GlcNAc(b1-2)Man(a1-6)]Man(b1-4)GlcNAc(b1-4)[Fuc(a1-6)]GlcNAc
# Method in brief: as §1
# [31] = target: Fuc(a1-2)[GalNAc(a1-3)]Gal(b1-3)GlcNAc(b1-3)GalNAc
# Method in brief: as §1
# [32] = target: Fuc(a1-2)[GalNAc(a1-3)]Gal(b1-3)GlcNAc(b1-6)GalNAc
# Method in brief: as §1
# [33] = target: Fuc(a1-2)[GalNAc(a1-3)]Gal(b1-4)Glc
# Method in brief: as §1
# [34] = target: Fuc(a1-2)[GalNAc(a1-3)]Gal(b1-4)GlcNAc
# Method in brief: as §1
# [35] = target: Fuc(a1-2)[GalNAc(a1-3)]Gal(b1-4)GlcNAc(b1-2)Man
# Method in brief: as §1
# [36] = target: Fuc(a1-2)[GalNAc(a1-3)]Gal(b1-4)GlcNAc(b1-2)Man(a1-3)[Fuc(a1-2)[GalNAc(a1-3)]Gal(b1-4)GlcNAc(b1-2)Man(a1-6)]Man(b1-4)GlcNAc(b1-4)GlcNAc
# Method in brief: as §1
# [37] = target: Fuc(a1-2)[GalNAc(a1-3)]Gal(b1-4)GlcNAc(b1-2)Man(a1-3)[Fuc(a1-2)[GalNAc(a1-3)]Gal(b1-4)GlcNAc(b1-2)Man(a1-6)]Man(b1-4)GlcNAc(b1-4)[Fuc(a1-6)]GlcNAc
# Method in brief: as §1
# [38] = target: Fuc(a1-2)[GalNAc(a1-3)]Gal(b1-4)GlcNAc(b1-3)Gal(b1-4)GlcNAc
# Method in brief: as §1
# [39] = target: Fuc(a1-2)[GalNAc(a1-3)]Gal(b1-4)GlcNAc(b1-3)Gal(b1-4)GlcNAc(b1-3)Gal(b1-4)GlcNAc
# Method in brief: as §1
# [40] = target: Fuc(a1-2)[GalNAc(a1-3)]Gal(b1-4)GlcNAc(b1-3)GalNAc
# Method in brief: as §1
# [41] = target: Fuc(a1-2)[GalNAc(a1-3)]Gal(b1-4)GlcNAc(b1-3)[Fuc(a1-2)[GalNAc(a1-3)]Gal(b1-4)GlcNAc(b1-6)]GalNAc
# Method in brief: as §1
# [42] = target: Fuc(a1-2)[GalNAc(a1-3)]Gal(b1-4)GlcNAc(b1-6)GalNAc
# Method in brief: as §1
# [43] = target: Fuc(a1-2)[GalNAc(a1-3)]Gal(b1-4)[Fuc(a1-3)]GlcNAc
# Method in brief: as §1
# [44] = target: Fuc(a1-2)[GalNAc(a1-3)]Gal(b1-4)[Fuc(a1-3)]GlcNAc(b1-3)GalNAc
# Method in brief: as §1
# [45] = target: Fuc(a1-2)[GalNAc(a1-4)]Gal(b1-4)GlcNAc
# Method in brief: as §1
binder,measurement,setting,value
SSR2 (Sclerotium rolfsii) (protein) MVYKITVRVYQTNPDAFFHPVEKTVWKYANGGTWSITDDQHVLTMGGSGTSGTLRFHADNGESFTATFGVHNYKRWCDIVTNLAADETGMVINQQYYSQKNREEARERQLSNYQVKNAKGRNFQIVYTEAEGNDLHANLIIG,glycan array binding signal (z-score),[1],-0.3
same,glycan array binding signal (z-score),[2],-0.263
same,glycan array binding signal (z-score),[3],-0.28
same,glycan array binding signal (z-score),[4],-0.275
same,glycan array binding signal (z-score),[5],-0.28
same,glycan array binding signal (z-score),[6],-0.29
same,glycan array binding signal (z-score),[7],-0.298
same,glycan array binding signal (z-score),[8],-0.273
same,glycan array binding signal (z-score),[9],-0.269
same,glycan array binding signal (z-score),[10],-0.257
same,glycan array binding signal (z-score),[11],-0.282
same,glycan array binding signal (z-score),[12],-0.301
same,glycan array binding signal (z-score),[13],-0.289
same,glycan array binding signal (z-score),[14],-0.26
same,glycan array binding signal (z-score),[15],-0.299
same,glycan array binding signal (z-score),[16],-0.299
same,glycan array binding signal (z-score),[17],-0.295
same,glycan array binding signal (z-score),[18],-0.285
same,glycan array binding signal (z-score),[19],-0.277
same,glycan array binding signal (z-score),[20],-0.277
same,glycan array binding signal (z-score),[21],-0.277
same,glycan array binding signal (z-score),[22],-0.264
same,glycan array binding signal (z-score),[23],-0.285
same,glycan array binding signal (z-score),[24],-0.281
same,glycan array binding signal (z-score),[25],-0.271
same,glycan array binding signal (z-score),[26],-0.212
same,glycan array binding signal (z-score),[27],-0.282
same,glycan array binding signal (z-score),[28],-0.29
same,glycan array binding signal (z-score),[29],-0.287
same,glycan array binding signal (z-score),[30],-0.264
same,glycan array binding signal (z-score),[31],-0.26
same,glycan array binding signal (z-score),[32],-0.297
same,glycan array binding signal (z-score),[33],-0.286
same,glycan array binding signal (z-score),[34],-0.287
same,glycan array binding signal (z-score),[35],-0.275
same,glycan array binding signal (z-score),[36],-0.281
same,glycan array binding signal (z-score),[37],-0.289
same,glycan array binding signal (z-score),[38],-0.305
same,glycan array binding signal (z-score),[39],-0.271
same,glycan array binding signal (z-score),[40],-0.297
same,glycan array binding signal (z-score),[41],-0.294
same,glycan array binding signal (z-score),[42],-0.297
same,glycan array binding signal (z-score),[43],-0.263
same,glycan array binding signal (z-score),[44],-0.253
same,glycan array binding signal (z-score),[45],-0.283
